Data taken from patent EP4748861A1 (Duality Biologics (Suzhou) Co., Ltd., dated 2025).

Tests used:
[1] = target: T1, human EGFR (His-Avi Tag, Kactus Biosystem, EGF-HM401) (human, UniProt P00533 part only); experiment: SPR, Biacore T200; ratio of affinities
T1 construct: Bought soluble protein used as SPR analyte; also called hEGFR; not shown: His-Avi tag

[2] = target: T2, human HER3 (His-Avi Tag, Kactus Biosystem, HER-HM403) (human, UniProt P21860 part only); experiment: SPR, Biacore T200; ratio of affinities
T2 construct: Bought soluble protein used as SPR analyte; also called hHER3; not shown: His-Avi tag

[3] = target: T1, human EGFR (His-Avi Tag, Kactus …); experiment: SPR, Biacore T200; antibody captured on ProA chip, antigen as analyte; 1:1 Langmuir fit
[4] = target: T2, human HER3 (His-Avi Tag, Kactus …); experiment: as above

fold weaker affinity than the control antibody SI-1X6.4 [1]: ~15 fold
fold stronger affinity than the control antibody SI-1X6.4 [2]: 25 fold
Kd [3]: 21.6 nM
koff [3]: 0.00132 s⁻¹
kon [3]: 61300 M⁻¹ s⁻¹
Kd [4]: 3.54 nM
koff [4]: 0.000616 s⁻¹
kon [4]: 174000 M⁻¹ s⁻¹
B1: DBXT005-01 (bispecific antibody, human IgG1, kappa)
heavy 1: QVQLVESGGGVVQPGRSLRLSCAASGFTFSTYGMHWVRQAPGKGLEWVAVIWDDGSYKYYGDSVKGRFTISRDNSKNTLYLQMNSLRAEDTAVYYCARDGITMVRGVMKDYFDYWGQGTLVTVSS[human IgG1 constant region with changes not spelt out]
light: AIQLTQSPSSLSASVGDRVTITCRASQDISSALVWYQQKPGKAPKLLIYDASSLESGVPSRFSGSESGTDFTLTISSLQPEDFATYYCQQFNSYPLTFGGGTKVEIKRTVAAPSVFIFPPSDEQLKSGTASVVCLLNNFYPREAKVQWKVDNALQSGNSQESVTEQDSKDSTYSLSSTLTLSKADYEKHKVYACEVTHQGLSSPVTKSFNRGEC
heavy 2: DIQMTQSPSSLSASVGDRVTITCRASQDISNYLNWYQQKPGKAPKLLIYYTSILHSGVPSRFSGSGSGTDYTFTISSLQPEDIATYFCQQGDTLPPTFGGGTKLEIKGGGGSGGGGSGGGGSGGGGSQVQLQESGPGLVKPSETLSLTCTVSGYSITSAYYWNWIRQPFGKGLEWMGYISYDGRNNFNPSLKNRVTISRDTSKNQFSLKLSSVTAADTAVYYCARDGDYDYFDYWGQGTTVTVSS[human IgG1 Fc with changes not spelt out]
notes: no light chain 2; also called BsAb DBXT005-01; anti-EGFR/HER3 BsAb
